Laboratory results: publication PMC7819943, “Rice protein-binding microarrays: a tool to detect cis-acting elements near promoter regions in rice”
The list shows a part of the results.

molecular target: T1, OsWOX13 (Oryza sativa, UniProt Q5QMM3 1-267); experiment: protein-binding microarray (RPBM); PBS, 2% BSA, 51.3 ng/ul salmon testes DNA, 50 uM zinc acetate, 200 nM TF, 25 C, 1 h; high values mean tight binding; settings: protein: recombinant; tags: N-terminal polyhistidine and DsRed monomer fusion (pET32a); label: CyDye5-dUTP incorporated in the synthesized complementary strand; 3' TTTTT single-stranded linker to array surface; dsDNA, one strand shown
T1 sequence: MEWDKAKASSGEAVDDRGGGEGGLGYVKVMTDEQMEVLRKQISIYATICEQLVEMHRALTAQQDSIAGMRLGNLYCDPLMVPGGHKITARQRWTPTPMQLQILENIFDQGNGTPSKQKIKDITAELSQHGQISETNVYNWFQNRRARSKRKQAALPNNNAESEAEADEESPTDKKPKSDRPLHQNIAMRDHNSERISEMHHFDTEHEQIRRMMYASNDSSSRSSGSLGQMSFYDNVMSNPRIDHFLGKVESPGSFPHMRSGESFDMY
Procedure, shortened: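 Transcription factors were made in E. coli BL21-CodonPlus as N-terminal fusions to a polyhistidine tag and DsRed, then purified on Ni–NTA. After primer extension with Cy5-dUTP and blocking with 2% BSA, a custom Agilent array was exposed for 1 h at 25 °C to 200 nM protein in PBS, 2% BSA, salmon testes DNA and 50 µM zinc acetate. Washed arrays were scanned on an Axon 4000B, and the binding signal is per-feature fluorescence intensity in arbitrary units.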

Q: With “CCTGTTAAATTGATCTGCCCTGATTAATTGACCCACCGACCGGAGTCACCTAGTGCAG” as the sequence, how does the binding signal read?
A: 38100 fluorescence intensity (a.u.)

Q: How did the binding signal turn out when “TGATTTGCATTAATTTGTAGCCACATTTTCTGTTCCTTTGCGGAGTCACCTAGTGCAG” was run?
A: 15800 fluorescence intensity (a.u.)

Q: “AACCAACAAATTTGTAATGGCATGGATCCAATTAACCCTCCGGAGTCACCTAGTGCAG” was tested. Which binding signal did it give?
A: 7500 fluorescence intensity (a.u.)

Q: “TAATTATTGAACACACTAATTAAGTATTACGATGCACCTCCGGAGTCACCTAGTGCAG” was tested. Which binding signal did it give?
A: 6340 fluorescence intensity (a.u.)

Q: For “AAATAGAATTATCTCTATCAACATGATCAAATGAGAGGGACGGAGTCACCTAGTGCAG”, which binding signal is on record?
A: 4680 fluorescence intensity (a.u.)

Q: “GTTAATTTCGTTTCGCTAGTAGATAGCGTGACAGTGTGAGCGGAGTCACCTAGTGCAG” was tested. Which binding signal did it give?
A: 10300 fluorescence intensity (a.u.)

Q: With “GTGGAGGTGATGTGATGTGATTAGTTGACGAGACGGGGAGCGGAGTCACCTAGTGCAG” as the sequence, how does the binding signal read?
A: 15600 fluorescence intensity (a.u.)

Q: Which binding signal does the source give for “TACTTAAATTAACATGAAACGGCAATGGGGAAATTTTGTGCGGAGTCACCTAGTGCAG” here?
A: 22400 fluorescence intensity (a.u.)

Q: How did the binding signal turn out when “AATCAATTTTATTTTCTCACTAGATTACTTTTATCCTCAACGGAGTCACCTAGTGCAG” was run?
A: 3690 fluorescence intensity (a.u.)

Q: “AGTGCGTTGGTGATTTGCCAGTAAACAAAACAACACCCGTCGGAGTCACCTAGTGCAG” was tested. Which binding signal did it give?
A: 5380 fluorescence intensity (a.u.)

Q: How did the binding signal turn out when “TGTTGATAAACATGTTATAAATGCATGCGCTCTCAAGGCGCGGAGTCACCTAGTGCAG” was run?
A: 3200 fluorescence intensity (a.u.)

Q: With “AAAATAACTTAGTAATGTTAATTTTACAAAGCTGATGTTGCGGAGTCACCTAGTGCAG” as the sequence, how does the binding signal read?
A: 7280 fluorescence intensity (a.u.)

Q: How did the binding signal turn out when “ATTAATTGATTGGATTGGTTGTGTGCATTATTTCATCTAACGGAGTCACCTAGTGCAG” was run?
A: 65200 fluorescence intensity (a.u.)

Q: “GATAATTTGTAATTCTGTTAAAATGCATGAAGAATAAAGACGGAGTCACCTAGTGCAG” was tested. Which binding signal did it give?
A: 16300 fluorescence intensity (a.u.)

Q: “TTTCAATTAGGTGGGCGAGAGTGGGGTTTAACCAATAGAGCGGAGTCACCTAGTGCAG” was tested. Which binding signal did it give?
A: 7290 fluorescence intensity (a.u.)

Q: For “TATAGATTAGAACGCACCTTTCACGCGAGTATTTGCCTTTCGGAGTCACCTAGTGCAG”, which binding signal is on record?
A: 6830 fluorescence intensity (a.u.)

Q: How did the binding signal turn out when “TTTAGATAGATATATATATTTAGATTCATTAACATCAATACGGAGTCACCTAGTGCAG” was run?
A: 4410 fluorescence intensity (a.u.)

Q: For “AATCACTTTGCTAATTGCTTTATTAATCAAGCAGGGTACGCGGAGTCACCTAGTGCAG”, which binding signal is on record?
A: 16000 fluorescence intensity (a.u.)

Q: With “ACCGTAACTGTAGTCATTGCATCCAATCTGGCAACGATAGCGGAGTCACCTAGTGCAG” as the sequence, how does the binding signal read?
A: 4870 fluorescence intensity (a.u.)

Q: Which binding signal does the source give for “TACTTAATTTCGTTGTAAAGATGGATGAGGGTTAGAGCTACGGAGTCACCTAGTGCAG” here?
A: 5560 fluorescence intensity (a.u.)

Q: How did the binding signal turn out when “GCGTTGATTTTAAATTCGAATTTGATTTTAATTCTAGGGGCGGAGTCACCTAGTGCAG” was run?
A: 40600 fluorescence intensity (a.u.)

Q: “AATTAGATTGCTTTATTTTGAGACATGGTAGTATAATGTTCGGAGTCACCTAGTGCAG” was tested. Which binding signal did it give?
A: 27400 fluorescence intensity (a.u.)

Q: For “AATAACTCAAATCAGCTATAGTCAAACTTAATAGCTAATTCGGAGTCACCTAGTGCAG”, which binding signal is on record?
A: 6290 fluorescence intensity (a.u.)

Q: For “CTACGGTCATCATCAATCACCATGGATCTGAATCCTAACGCGGAGTCACCTAGTGCAG”, which binding signal is on record?
A: 27300 fluorescence intensity (a.u.)

Q: With “TAATGATTATCTCAGCAGATCAGATTTCGGGAGTGATTTACGGAGTCACCTAGTGCAG” as the sequence, how does the binding signal read?
A: 11600 fluorescence intensity (a.u.)

Q: How did the binding signal turn out when “ATAATGACCAGTCTATAATGACCGGTTTTGTATGTTATGGCGGAGTCACCTAGTGCAG” was run?
A: 6250 fluorescence intensity (a.u.)

Q: How did the binding signal turn out when “CCTTTTAAATTAAGGTATAAGGTATAGCCATATGCAAAGGCGGAGTCACCTAGTGCAG” was run?
A: 3260 fluorescence intensity (a.u.)

Q: “CTGATATCTGTCTTCACATAGATTAGGAGCAAAATTTATCCGGAGTCACCTAGTGCAG” was tested. Which binding signal did it give?
A: 3920 fluorescence intensity (a.u.)

Q: Which binding signal does the source give for “TAGTAGTTGACATCGTTGATTAGTGATTACTATGAAACAGCGGAGTCACCTAGTGCAG” here?
A: 34000 fluorescence intensity (a.u.)

Q: Which binding signal does the source give for “GGCACAAATTGGGCTGCAGATGAAATGAGCACATAATAAGCGGAGTCACCTAGTGCAG” here?
A: 3550 fluorescence intensity (a.u.)

Q: Which binding signal does the source give for “ATTTGTAATCAAGTTTATATAAAATTTTAGCAACACCTATCGGAGTCACCTAGTGCAG” here?
A: 4980 fluorescence intensity (a.u.)

Q: How did the binding signal turn out when “TGATAATTTAATTTAACATGTTTGTATTTGAAAAGCTCTTCGGAGTCACCTAGTGCAG” was run?
A: 25500 fluorescence intensity (a.u.)

Q: How did the binding signal turn out when “TTCAAATCAAGATTTGAAAACTTTCAACTCGAGAATCAAGCGGAGTCACCTAGTGCAG” was run?
A: 8080 fluorescence intensity (a.u.)

Q: For “GGTGACATTCAGTCATTGACATGTGGGACCCACATGTGCCCGGAGTCACCTAGTGCAG”, which binding signal is on record?
A: 19600 fluorescence intensity (a.u.)

Q: How did the binding signal turn out when “TTATCCAAAACGTCAATTAATATAGAACTAGAGTGAGTACCGGAGTCACCTAGTGCAG” was run?
A: 4500 fluorescence intensity (a.u.)

Q: “GTTAATGAATCTAGACATATATATCTATCTAGATTCATTACGGAGTCACCTAGTGCAG” was tested. Which binding signal did it give?
A: 6740 fluorescence intensity (a.u.)

Q: Which binding signal does the source give for “ATCAGCTGATTACCTCACTGCATCCGTATGATTCGACTTTCGGAGTCACCTAGTGCAG” here?
A: 7310 fluorescence intensity (a.u.)

Q: Which binding signal does the source give for “ATACACTAAAATTACATATGTAATTTAGGGACTTACAATGCGGAGTCACCTAGTGCAG” here?
A: 7340 fluorescence intensity (a.u.)

Q: Which binding signal does the source give for “GTGTGATGAATTCTTTTGTTTGATTGACATCTCCTGCTTGCGGAGTCACCTAGTGCAG” here?
A: 43100 fluorescence intensity (a.u.)

Q: For “AGATAAATCAATATGTAATATATCACTCCACAACCATGCACGGAGTCACCTAGTGCAG”, which binding signal is on record?
A: 5500 fluorescence intensity (a.u.)

Q: For “CATCATCACGTCCGTCATGATGGCGCAATCAAACTAACACCGGAGTCACCTAGTGCAG”, which binding signal is on record?
A: 3360 fluorescence intensity (a.u.)

Q: How did the binding signal turn out when “CACATTGACCAAAATTTAATGTTTGTTTCCTACTAGTGTGCGGAGTCACCTAGTGCAG” was run?
A: 4440 fluorescence intensity (a.u.)

Q: For “TTAATTTGTGTGGATATGAATTTAAATTCATATTCATTTGCGGAGTCACCTAGTGCAG”, which binding signal is on record?
A: 5550 fluorescence intensity (a.u.)

Q: With “CAACCCAATCAGCAGACTCCTGATCCCGGCGAGCAAGGTACGGAGTCACCTAGTGCAG” as the sequence, how does the binding signal read?
A: 3260 fluorescence intensity (a.u.)

Q: For “AACTGATGAATTTGTCTTTTCCGTTTAAACTTTGACCACCCGGAGTCACCTAGTGCAG”, which binding signal is on record?
A: 7140 fluorescence intensity (a.u.)

Q: For “AAAATTTGACAAGATAGATTCATATGTAATATATCACCCCCGGAGTCACCTAGTGCAG”, which binding signal is on record?
A: 20900 fluorescence intensity (a.u.)

Q: Which binding signal does the source give for “TGGAGATTGATGAAGTTACTACTAACGACTCGCTGTTGACCGGAGTCACCTAGTGCAG” here?
A: 30500 fluorescence intensity (a.u.)

Q: With “AAAACTGTAACTATGAATTACATCTAATATATTTGTGTCCCGGAGTCACCTAGTGCAG” as the sequence, how does the binding signal read?
A: 3510 fluorescence intensity (a.u.)

Q: With “TGTTAAATTTCCTTCAAAATTTGTATGGGAAGAGGTATTCCGGAGTCACCTAGTGCAG” as the sequence, how does the binding signal read?
A: 4800 fluorescence intensity (a.u.)

Q: Which binding signal does the source give for “ACATAATACATTTATTAATAAATTCTTATAAGATTTCATACGGAGTCACCTAGTGCAG” here?
A: 3800 fluorescence intensity (a.u.)

Q: With “AAGAGCTGATGGGAAAGATTGGTTTCTAGTGTTGGACCAGCGGAGTCACCTAGTGCAG” as the sequence, how does the binding signal read?
A: 5360 fluorescence intensity (a.u.)

Q: Which binding signal does the source give for “TTGATATAGCTAATACTTAATTAATCATGCGCTAACGGACCGGAGTCACCTAGTGCAG” here?
A: 4660 fluorescence intensity (a.u.)

Q: How did the binding signal turn out when “CAACCAATAAATTAGAACTCCATCTCGATCATGGTGTTATCGGAGTCACCTAGTGCAG” was run?
A: 4370 fluorescence intensity (a.u.)

Q: Which binding signal does the source give for “CCGAGACGTAGATAGTAAATAATTAGATTTCCCAGTACAGCGGAGTCACCTAGTGCAG” here?
A: 5860 fluorescence intensity (a.u.)
